Consider 86 compounds from ChEMBL document CHEMBL1201862, “PubChem BioAssay data set” (2004).

Each structure is given as a SMILES string.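 These data come from cells grown in 96-well plates and exposed to compound for 48 hours at five concentrations. Here, GI50 denotes the concentration required for 50% inhibition of growth.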 Active and inactive are the calls of the source. Cut-off read from the data, not from the text of the source: active = GI50 up to about 1.1 µM and inactive = higher.

The subject of this experiment is NCI-H322M. The experiment is described as follows: NCI tumour cell line growth inhibition, 48 h.
On to `O=[N+]([O-])c1ccc(-n2nc3ccc4c(no[n+]4[O-])c3n2)cc1`, for which the GI50 is inactive: 19.1 µM.
With `CN(C)CCCNc1cc(O)c2c(c1O)C(=O)c1ccccc1C2=O`, the GI50 is inactive: 11.6 µM.
Consider `N=C(N)SCc1ccc(Cl)cc1Cl.O=[N+]([O-])c1c(O)c(Cl)cc(Cl)c1Cl`, for which the GI50 is inactive: 22.1 µM.
The result for `Cc1cc(Cc2cc(C)cc(C(C)(C)C)c2O)c(O)c(Cc2cc(C)cc(C(C)(C)C)c2O)c1` reads inactive: 3.06 µM.
The figure for `O=C(O)CC1OCC=C2CN3CCC45c6ccccc6NC4C1C2CC35` (stereo unspecified) is inactive: > 100 µM; for `Cc1ccc2nc(CC(=O)c3ccc4ccccc4c3)c(O)nc2c1` it is inactive: > 100 µM.
The figure for `CCN1CSC(=S)N(CC)C1` is inactive: > 100 µM.
On to `Nc1nc(SCC(=O)c2ccc(Br)cc2)c2nc[nH]c2n1`, for which the GI50 is inactive: 78 µM.
For the compound `c1ccc(CNc2c3c(nc4ccccc24)CCC3)cc1`, the GI50 was inactive: 14.2 µM.
Turning to `CN(C)CCn1c(=O)c2ccc(NCCCN(C)CCCNc3ccc4c(=O)n(CCN(C)C)c(=O)n5c6ccccc6c(=O)c3c45)c3c(=O)c4ccccc4n(c1=O)c23`, the GI50 is active: < 0.01 µM.
`C[n+]1c2ccccc2c(NC(CCC(N)=O)C(=O)O)c2ccccc21` (stereo unspecified): the GI50 is inactive: > 100 µM.
Take `O=C(c1no[n+]([O-])c1C(=O)c1csc2ccccc12)c1csc2ccccc12`: the GI50 is inactive: 16.7 µM.
The figure for `C1OC1C1CO1` (stereo unspecified) is inactive: > 100 µM; for `O=c1[nH]c(=O)c2ncn(-c3ccc([N+](=O)[O-])cn3)c2[nH]1` it is inactive: > 100 µM; for `CC/C(Cl)=N\OC(=O)Nc1ccc(C#N)cc1` it is inactive: 17.4 µM.
Consider `Cc1ccc(OCC2CO2)c(Br)c1` (stereo unspecified), for which the GI50 is inactive: 81.5 µM.
Turning to `O=C(N/N=C1/C(=O)c2c3ccccc3cc3cccc1c23)c1cccc(Cl)c1`, the GI50 was inactive: > 100 µM.
Regarding `CC1=NN(C(=O)CC(=O)Nc2cccc(Cl)c2)C(=O)C1/N=N/c1ccc(S(N)(=O)=O)cc1` (stereo unspecified), the GI50 is inactive: > 100 µM.
`CC(=O)NC(CCCNC(=O)OCc1ccccc1)C(=O)NCc1ccccc1` (stereo unspecified): the GI50 is inactive: > 100 µM.
For the compound `CC[P+](c1ccccc1)(N(C)C)N(C)C`, the GI50 was inactive: > 100 µM.
Turning to `NC1C2(CCCCCC2)NC(=O)C12CCCCCC2` (stereo unspecified), the GI50 was inactive: > 100 µM.
Regarding `CC(=O)O/C(=C1\C[C@H]2[C@@H]3CC=C4C[C@@H](OC(C)=O)CC[C@]4(C)[C@H]3CC[C@]2(C)C1=O)C(F)(F)F`, the GI50 is inactive: 17.8 µM.
In the case of `COC(=O)[C@H]1C=C[C@@H](C)n2c(=O)c3cc4ccccc4cc3c(=O)n21`, the GI50 is inactive: > 100 µM.
Turning to `C[Si](C)(C)C#C[I+]c1ccccc1`, the GI50 is inactive: > 100 µM.
`Cn1c(=O)n(CC2CS2)c2ccccc21` (stereo unspecified): the GI50 is inactive: > 100 µM.
The result for `c1ccc(/C(=N/Nc2ccncn2)c2ccccn2)cc1` reads inactive: 33.6 µM.
Regarding `O=C1c2c(Br)sc(Br)c2[C@@H](Cl)[C@H]1Cl`, the GI50 was inactive: 19.1 µM.
The result for `O=C(Nc1cc2c(=O)oc3ccccc3c2oc1=O)c1cccnc1` reads inactive: > 100 µM.
In the case of `O=C(/C=C/c1ccc(OCC(=O)N2CCN(c3ccccc3)CC2)cc1)c1ccc(Cl)cc1`, the GI50 was inactive: > 100 µM.
Consider `CCc1ccc(CCC(=O)O)nc1`, for which the GI50 was inactive: > 100 µM.
For the compound `COC(=O)C(/C(=N\O)C(=O)Nc1ccc(Br)cc1)c1nc2ccccc2nc1O` (stereo unspecified), the GI50 was inactive: > 100 µM.
For the compound `COc1cc(/C=C/C(C)=O)ccc1OP(=O)(O)O`, the GI50 is inactive: > 100 µM.
`O=c1c2ccccc2c(=O)n2n1CC=CC2`: the GI50 was inactive: > 100 µM.
The result for `CSC(=S)N/N=C/c1nccc2ccccc12` reads active: 0.682 µM.
Consider `N#CC(C#N)=CNC(=S)c1ccncc1`, for which the GI50 was inactive: > 100 µM.
In the case of `N#CCCOCN(CO)c1nc(N(CO)COCCC#N)nc(N(CO)COCCC#N)n1`, the GI50 was inactive: 40.5 µM.
As for `C/C(=N\NC(=S)Nc1ccc(C)cc1)c1nc2cccnc2[nH]1`, the GI50 is inactive: 3.66 µM.
The result for `O=C(n1[nH]c(=O)n(-c2ccc([N+](=O)[O-])cc2)c1=O)C(Cl)(Cl)Cl` reads inactive: > 75 µM; that for `Cc1cc(=O)n2nc(CN3CCCCC3)sc2n1`, inactive: > 100 µM; that for `c1ccc2c(c1)ccc1nc(-c3ccc4c(c3)OCO4)c3c(c12)CCC3`, inactive: > 100 µM.
For the compound `O=C1C=CC(=O)c2c1ccc1c3ccccc3n(Cc3cccc([N+](=O)[O-])c3)c21`, the GI50 is inactive: > 100 µM.
The figure for `COc1ccc(CNc2nc3cc(C(F)(F)F)ccc3nc2-c2ccccc2)cc1OC` is inactive: 5.71 µM; for `N#C/C=C(/NC(=O)Nc1ccccc1)N1CCCC1` it is inactive: > 62.1 µM.
Take `C#CC(O)/C=C/C(O)CCCC(O)CC#CC(O)C#CCCCCC(O)/C=C/CCCC(=O)CCCCCCCCCCCCCCCC(O)C(O)C#CC(=O)O` (stereo unspecified): the GI50 was inactive: > 25 µM.
`COc1ccc([N+](=O)[O-])cc1[I+]c1cc([N+](=O)[O-])ccc1OC`: the GI50 was inactive: > 100 µM.
In the case of `CN(C)CCNS(=O)(=O)N(C)C`, the GI50 was inactive: > 100 µM.
Take `COc1ccc(/C=C2\CCC(CNc3ccc(OC)cc3)C2=O)cc1` (stereo unspecified): the GI50 is inactive: > 100 µM.
Turning to `CC1(CCc2ccccc2)CC1(Br)Br` (stereo unspecified), the GI50 is inactive: > 100 µM.
With `CCCCc1ccc(N2C(=O)c3cccnc3S2(=O)=O)cc1`, the GI50 was inactive: > 100 µM.
The figure for `COc1ccc2c(c1)CC[C@@H]1[C@@H]2CC[C@]2(C)C(=O)/C(=C/c3ccncc3)C[C@@H]12` is inactive: 45.4 µM.
The result for `CCOP(=O)(OCC)C(Cc1cn(S(=O)(=O)c2ccc(C)cc2)cn1)C(=O)O` (stereo unspecified) reads inactive: > 100 µM; that for `OCCOCn1nncc1Cn1ncc2c(O)ncnc21`, inactive: 51.5 µM.
For the compound `[B].c1ccc([Si](OCCN2CC2)(c2ccccc2)c2ccccc2)cc1`, the GI50 was inactive: 14.6 µM.
The figure for `CN(NC(=O)CCCl)C1=NCCN1` is inactive: > 100 µM; for `O=c1c2cccnc2ncn1CCCN1CCCC1` it is inactive: > 100 µM; for `CN(C)c1ccc(/C=N\NC(=O)c2ccccc2Nc2ccccc2C(=O)N/N=C/c2ccc(N(C)C)cc2)cc1` it is inactive: > 100 µM.
The figure for `CCOC(=O)COc1cccc2c1C(=O)CCO2` is inactive: > 100 µM.
Turning to `CSc1nncc(-c2cc3c(c(SC)n2)CCCC3)n1`, the GI50 is inactive: > 100 µM.
For `Cc1ccc(S(=O)(=O)OC(C=O)C(O)C(O)COC(c2ccccc2)(c2ccccc2)c2ccccc2)cc1` (stereo unspecified), the GI50 was inactive: 15.8 µM.
The figure for `CCCCCCc1cc2cc(C(=O)Nc3ccccc3F)c(=N)oc2cc1O` is inactive: 19.1 µM; for `Nc1nc(NCCCO)cc(=O)[nH]1` it is inactive: > 100 µM.
With `O=c1[nH]c(=O)n(COCc2ccccc2)c2ccc([N+](=O)[O-])cc12`, the GI50 was inactive: > 100 µM.
Take `C[C@H]1/C(=C/C(=O)OCCN(C)C)CC[C@H]2[C@H]1C(=O)C[C@H]1C(C)(C)[C@@H](O)CC[C@]21C`: the GI50 is inactive: > 100 µM.
The figure for `CCCCCCCCCCCCCCCCOC(=O)c1cc(O)cc(C(=O)OCCCCCCCCCCCCCCCC)c1` is inactive: > 100 µM.
The figure for `O=C1O/C(=C(/Cl)c2c3ccccc3cc3ccccc23)c2ccccc21` is inactive: 39.7 µM; for `O=c1c(-c2cccc3ccccc23)c(-c2cccc3ccccc23)c1=O` it is inactive: 5.77 µM; for `CC(C)(C)n1c(=O)n2n(c1=O)C1c3cccc4cccc(c34)C2C2c3cccc4cccc(c34)C1n1c(=O)n(C(C)(C)C)c(=O)n12` it is inactive: > 100 µM.
As for `COC(=O)/C(C#N)=C(/NCCN)Nc1ccccc1`, the GI50 is inactive: > 100 µM.
The result for `O=C(O)c1ccc(Nc2nc3ccccc3nc2C(=O)O)cc1` reads inactive: > 100 µM; that for `O=C(CCc1nnc(S)[nH]1)Nc1cc(Cl)c(Cl)cc1Cl`, inactive: > 100 µM.
On to `C[N+](C)(C)CC1CCCC1=O` (stereo unspecified), for which the GI50 is inactive: 17.1 µM.
Regarding `CC(=O)OCC1OC(c2c(OC(C)=O)cc(C)c3c(=O)cc(/C(C(C)=O)=C(\C)O)oc23)C(OC(C)=O)C(OC(C)=O)C1OC(C)=O` (stereo unspecified), the GI50 was inactive: > 100 µM.
Take `O=C(O)/C(=C/C=C/c1ccccc1)c1csc(-c2nc(/C(=C\C=C\c3ccccc3)C(=O)O)cs2)n1`: the GI50 was inactive: 39.1 µM.
As to `COC(=O)CC(NC(=O)OCc1ccccc1)C(C(=O)OCc1ccccc1)C1(C)OCCO1` (stereo unspecified), the GI50 is inactive: 90.2 µM.
Take `O=C1N(Cl)C(=O)C(c2ccc(Cl)cc2)(c2ccc(Cl)cc2)N1Cl`: the GI50 was inactive: > 100 µM.
For the compound `COc1ccc(N2C(=O)C3c4[nH]c5ccc(C)cc5c4C4CCC(C(C)C)CC4C3C2=O)cc1` (stereo unspecified), the GI50 was inactive: > 100 µM.
In the case of `O=P(Nc1cccc(Cl)c1)(Oc1ccccc1)N(CCCl)CCCl` (stereo unspecified), the GI50 was inactive: 15.2 µM.
Take `COc1cccc2c1C(=O)C=CC2=O`: the GI50 is inactive: 15.7 µM.
In the case of `NC(=S)NNC(=S)NC(=O)c1ccco1`, the GI50 is inactive: > 10 µM.
As to `CC1(O)CC(C(F)(F)F)(C(F)(F)F)OC1=O` (stereo unspecified), the GI50 was inactive: > 10 µM.
The figure for `CS/C(=N\C(=S)Nc1ccccc1)Nc1ccccc1` is inactive: 35.8 µM; for `C=CCCCC1SC2=C(CC)CCCN2C1=O` (stereo unspecified) it is inactive: > 100 µM.
Consider `O=c1c2cccnc2oc2c(Cl)cc(-c3nnn[nH]3)cc12`, for which the GI50 was inactive: > 100 µM.
On to `CC1OC2/C=C\CC(O)C(C)(C)C3CCC(C)C4(O3)O[B-]35OC(C(=O)OC1C2)C1(OC(CCC1C)C(C)(C)C(O)C/C=C\C1CC(OC(=O)C4O3)C(C)O1)O5` (stereo unspecified), for which the GI50 was inactive: 3.38 µM.
For the compound `CC(=O)OC[C@@H](COC(=O)/C=C/c1ccc(O)cc1)OC1OC(CO)C(O)C(O)C1O` (stereo partly specified), the GI50 is inactive: > 100 µM.
`O=CN/C=C/c1ccc(O)c(O)c1`: the GI50 was inactive: > 100 µM.
